Results: US8962843B2, “1,3,4-oxadiazole and 1,3,4-thiadiazole beta-lactamase inhibitors” (priority 2012, dated 2015)
Structures can show the parent of a compound that is named as a salt. At least one compound was matched to its structure with a doubt left. Some entries share one result that the patent states for a list of compounds.

System: bacterial strains that express KPC β-lactamases
Test: Standard BLI potentiation MIC / synergy MIC assays, strains expressing KPC β-lactamases
Format: cell-based
Details: in combination with a β-lactam; comparator Avibactam
Description: The experimental protocol was performed according to Clinical and Laboratory Standards Institute (CLSI) guidelines with modifications as described below (CLSI guidelines can be derived from the CLSI document M07-A9 published in January 2012: “Methods for Dilution Antimicrobial Susceptibility Tests for Bacteria That Grow Aerobically; Approved Standard-Ninth Edition”).
To prepare for MIC testing, frozen glycerol stocks of clinical isolates (Klebsiella pneumoniae, Eschericia coli, Enterobacter spp, Citrobacter spp, or Pseudomonas aeruginosa) were used to streak for isolated colonies on rich, non-selective, tryptic soy agar containing 5% sheep's blood (TSAB). Frozen glycerol stocks of laboratory engineered, isogenic E. coli strains, which contain cloned β-lactamase expressing plasmids were used to streak for isolated colonies on rich, selective LB agar supplemented with 25 μg/mL tetracycline to maintain the plasmid. All strains were incubated at 37° C. for 18-24 hrs. […]
Plates were incubated for 18-20 hours at 37° C. with aeration (200 rpm). Following incubation, growth was confirmed visually placing plates over a viewing apparatus (stand with a mirror underneath) and then OD600 was measured using a SpectraMax 340PC384 plate reader (Molecular Devices, Sunnyvale, Calif.). Growth was defined as turbidity that could be detected with the naked eye or achieving minimum OD600 of 0.1. […]

| Structure (SMILES) | activity and/or spectrum of activity against bacterial strains that express KPC β-lactamases, compared with Avibactam |
| --- | --- |
| C[n+]1ccc(-c2nnc([C@@H]3CC[C@@H]4CN3C(=O)N4OS(=O)(=O)O)s2)cc1 [Compound 786, (2S,5R)-2-(5-(1-methylpyridin-1-ium-4-yl)-1,3,4-thiadiazol-2-yl)-7-oxo-1,6-diazabicyclo[3.2.1]octan-6-yl sulfate] | more active than Avibactam for at least one, bacterial strain that expresses KPC β-lactamase and/or show a better spectrum of activity |

Molecular target: KPC-2 (Klebsiella pneumoniae, UniProt Q9F663)
Sequence (Q9F663 25-293 limits assumed): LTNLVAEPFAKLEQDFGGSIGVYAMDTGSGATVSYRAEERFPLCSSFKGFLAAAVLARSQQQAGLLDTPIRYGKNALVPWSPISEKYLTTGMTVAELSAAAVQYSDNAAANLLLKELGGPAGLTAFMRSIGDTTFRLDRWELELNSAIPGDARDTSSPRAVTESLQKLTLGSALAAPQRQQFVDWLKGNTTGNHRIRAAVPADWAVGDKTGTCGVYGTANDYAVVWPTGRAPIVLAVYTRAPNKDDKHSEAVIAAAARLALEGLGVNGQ
Test: not given
Format: biochemical, K. pneumoniae
Details: KPC-2, 100 μM nitrocefin, PBS pH 7.4, 25° C. (Table IV)

| Structure (SMILES) | binding affinity (kinact/K) for the β-lactamase enzyme |
| --- | --- |
| O=C1N2C[C@@H](CC[C@H]2c2nnc(CC3CCNC3)o2)N1OS(=O)(=O)O (stereo partly drawn) [Compound 764, (2S,5R)-7-oxo-2-(5-(pyrrolidin-3-ylmethyl)-1,3,4-oxadiazol-2-yl)-1,6-diazabicyclo[3.2.1]octan-6-yl hydrogen sulfate] | 1-99 mM^1 s^−1 |
| O=C1N2C[C@@H](CC[C@H]2c2nnc(CN[C@H]3CCNC3)o2)N1OS(=O)(=O)O [Compound 765, (2S,5R)-7-oxo-2-(5-(((S)-pyrrolidin-3-ylamino)methyl)-1,3,4-oxadiazol-2-yl)-1,6-diazabicyclo[3.2.1]octan-6-yl hydrogen sulfate] | 1-99 mM^1 s^−1 |
| O=C1N2C[C@@H](CC[C@H]2c2nnc(CN[C@@H]3CCNC3)o2)N1OS(=O)(=O)O [Compound 766, (2S,5R)-7-oxo-2-(5-(((R)-pyrrolidin-3-ylamino)methyl)-1,3,4-oxadiazol-2-yl)-1,6-diazabicyclo[3.2.1]octan-6-yl hydrogen sulfate] | 1-99 mM^1 s^−1 |
| O=C1N2C[C@@H](CC[C@H]2c2nnc(CNC3CCNCC3)o2)N1OS(=O)(=O)O [Compound 769, (2S,5R)-7-oxo-2-(5-((piperidin-4-ylamino)methyl)-1,3,4-oxadiazol-2-yl)-1,6-diazabicyclo[3.2.1]octan-6-yl hydrogen sulfate] | 1-99 mM^1 s^−1 |
| O=C1N2C[C@@H](CC[C@H]2c2nnc(CCNC3CCNCC3)o2)N1OS(=O)(=O)O [Compound 770, (2S,5R)-7-oxo-2-(5-(2-(piperidin-4-ylamino)ethyl)-1,3,4-oxadiazol-2-yl)-1,6-diazabicyclo[3.2.1]octan-6-yl hydrogen sulfate] | 100-999 mM^1 s^−1 |
| O=C1N2C[C@@H](CC[C@H]2c2nnc(CCCNC3CCNCC3)o2)N1OS(=O)(=O)O [Compound 771, (2S,5R)-7-oxo-2-(5-(3-(piperidin-4-ylamino)propyl)-1,3,4-oxadiazol-2-yl)-1,6-diazabicyclo[3.2.1]octan-6-yl hydrogen sulfate] | 1-99 mM^1 s^−1 |
| O=C1N2C[C@@H](CC[C@H]2c2nnc(CCCCNC3CCNCC3)o2)N1OS(=O)(=O)O [Compound 772, (2S,5R)-7-oxo-2-(5-(4-(piperidin-4-ylamino)butyl)-1,3,4-oxadiazol-2-yl)-1,6-diazabicyclo[3.2.1]octan-6-yl hydrogen sulfate] | 1-99 mM^1 s^−1 |
| NC1CCN(c2nnc([C@@H]3CC[C@@H]4CN3C(=O)N4OS(=O)(=O)O)o2)CC1 [Compound 773, (2S,5R)-2-(5-(4-aminopiperidin-1-yl)-1,3,4-oxadiazol-2-yl)-7-oxo-1,6-diazabicyclo[3.2.1]octan-6-yl hydrogen sulfate] | 1-99 mM^1 s^−1 |
| NC1CCN(Cc2nnc([C@@H]3CC[C@@H]4CN3C(=O)N4OS(=O)(=O)O)o2)CC1 [Compound 774, (2S,5R)-2-(5-((4-aminopiperidin-1-yl)methyl)-1,3,4-oxadiazol-2-yl)-7-oxo-1,6-diazabicyclo[3.2.1]octan-6-yl hydrogen sulfate] | 1-99 mM^1 s^−1 |
| O=C1N2C[C@@H](CC[C@H]2c2nnc(CN3CCNCC3)o2)N1OS(=O)(=O)O [Compound 777, (2S,5R)-7-oxo-2-(5-(piperazin-1-ylmethyl)-1,3,4-oxadiazol-2-yl)-1,6-diazabicyclo[3.2.1]octan-6-yl hydrogen sulfate] | 1-99 mM^1 s^−1 |
| O=C1N2C[C@@H](CC[C@H]2c2nnc([C@@H]3CNCCN3)o2)N1OS(=O)(=O)O [Compound 778, (2S,5R)-7-oxo-2-(5((S)-piperazin-2-yl)-1,3,4-oxadiazol-2-yl)-1,6-diazabicyclo[3.2.1]octan-6-yl hydrogen sulfate] | 1-99 mM^1 s^−1 |
| O=C1N2C[C@@H](CC[C@H]2c2nnc([C@H]3CNCCN3)o2)N1OS(=O)(=O)O [Compound 779, (2S,5R)-7-oxo-2-(5((R)-piperazin-2-yl)-1,3,4-oxadiazol-2-yl)-1,6-diazabicyclo[3.2.1]octan-6-yl hydrogen sulfate] | 100-999 mM^1 s^−1 |
